Data on 43 molecules can be found in PMC4336329 (PLoS ONE, 2015).

Each structure is given as a SMILES string. In all, about 310,000 compounds went through this assay and about 2,200 (0.71%) showed an effect of 50% or more. The effect is printed as a negative number. The list shows a part of the results.

The target in this assay is human ether-à-go-go-related gene (hERG) potassium channel (human, UniProt Q12809). As to the kind of experiment: primary screen, population patch clamp on CHO cells stably expressing hERG.
Sequence of human ether-à-go-go-related gene (hERG) potassium channel (Q12809 whole entry, looked up): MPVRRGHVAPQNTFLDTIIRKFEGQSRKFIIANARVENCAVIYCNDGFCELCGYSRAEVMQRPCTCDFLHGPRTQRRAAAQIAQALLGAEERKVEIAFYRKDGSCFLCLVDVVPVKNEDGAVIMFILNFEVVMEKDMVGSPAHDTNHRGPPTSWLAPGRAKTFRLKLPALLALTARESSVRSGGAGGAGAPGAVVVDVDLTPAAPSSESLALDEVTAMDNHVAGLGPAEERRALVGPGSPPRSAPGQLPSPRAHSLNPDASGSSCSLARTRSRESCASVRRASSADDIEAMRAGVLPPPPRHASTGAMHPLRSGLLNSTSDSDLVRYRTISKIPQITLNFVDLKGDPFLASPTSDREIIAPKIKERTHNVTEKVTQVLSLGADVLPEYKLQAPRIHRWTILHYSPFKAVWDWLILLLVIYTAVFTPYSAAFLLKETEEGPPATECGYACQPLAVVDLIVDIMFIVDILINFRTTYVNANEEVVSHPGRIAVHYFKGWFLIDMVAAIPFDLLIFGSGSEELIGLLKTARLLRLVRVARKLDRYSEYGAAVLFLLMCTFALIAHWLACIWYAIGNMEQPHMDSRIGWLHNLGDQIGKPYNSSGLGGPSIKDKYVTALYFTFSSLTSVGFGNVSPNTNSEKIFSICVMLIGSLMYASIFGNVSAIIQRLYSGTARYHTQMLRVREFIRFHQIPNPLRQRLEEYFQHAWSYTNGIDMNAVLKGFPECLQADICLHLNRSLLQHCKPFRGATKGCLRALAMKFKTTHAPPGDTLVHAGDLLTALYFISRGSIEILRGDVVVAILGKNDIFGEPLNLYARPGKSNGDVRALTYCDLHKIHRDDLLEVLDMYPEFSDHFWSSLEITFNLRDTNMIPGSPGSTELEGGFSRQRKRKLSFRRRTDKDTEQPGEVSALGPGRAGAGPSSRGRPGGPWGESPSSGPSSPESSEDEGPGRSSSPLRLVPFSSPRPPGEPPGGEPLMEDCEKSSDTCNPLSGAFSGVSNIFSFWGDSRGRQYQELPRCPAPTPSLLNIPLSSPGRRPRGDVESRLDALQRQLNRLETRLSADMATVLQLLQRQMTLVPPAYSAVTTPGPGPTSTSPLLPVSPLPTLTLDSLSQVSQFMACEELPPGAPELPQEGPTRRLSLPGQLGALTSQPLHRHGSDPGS
For `Cc1ccc(C)c(NC(=O)CN(C)C(=O)c2ccccc2OCc2ccc(Cl)cc2)c1`, the “hERG current change (%, negative = inhibition) at 1uM” value is on record as 6.83%.
For `CC(=O)c1sc(N/N=C/c2cccc(O)c2)nc1C`, the “hERG current change (%, negative = inhibition) at 1uM” value turned out to be 17.4%.
With `COc1cc(CC(NC(C)=O)C(=O)NC2CCN(C(=O)Nc3ccccc3Cl)CC2)cc(OC)c1` (stereo not shown), the “hERG current change (%, negative = inhibition) at 1uM” value is 7.01%.
Then `CC(C)(C)CNc1cc(N2CCCC2)ccc1[N+](=O)[O-]`, with 10.6%; and `CCOC(=O)C1(Cc2ccccc2C)CCCN(C(=O)CSC)C1` (stereo not shown), with 11%; and `CCc1ccc(NC(=S)N2CCCC(C(F)(F)F)C2)cc1` (stereo not shown), with 9.26%.
As for `CC(C)CC1NC(=O)N(CC(=O)Nc2ccc3c(c2)OCCO3)C1=O` (stereo not shown), the “hERG current change (%, negative = inhibition) at 1uM” value was 4.14%.
For `Cc1cc(C)cc(NS(=O)(=O)c2cccs2)c1`, the “hERG current change (%, negative = inhibition) at 1uM” value is on record as 13.4%.
Take `Cc1ccc(-c2cc(-c3ccccc3O)nc(N/N=C/c3cccnc3)n2)cc1`: the “hERG current change (%, negative = inhibition) at 1uM” value is 11.9%.
With `Cc1cccc(N=Nc2c(O)[nH]c3ccc(F)cc23)c1`, the “hERG current change (%, negative = inhibition) at 1uM” value amounted to 10.1%.
With `COc1cc(CN2CCCC(C(=O)c3ccc(C(C)(C)C)cc3)C2)cc(OC)c1O` (stereo not shown), the “hERG current change (%, negative = inhibition) at 1uM” value was 8.68%.
Regarding `O=C(NC(=S)Nc1cccc(O)c1)c1ccco1`, the “hERG current change (%, negative = inhibition) at 1uM” value was 13.8%.
The figure for `Cl.c1csc(COc2ccccc2CNC2CCCCC2)c1` is 6.25%.
Turning to `Cc1ccc(N2C(=O)S/C(=C/c3cn(C)c4ccccc34)C2=O)cc1`, the “hERG current change (%, negative = inhibition) at 1uM” value worked out at 8.54%.
Consider `Cc1ccccc1CC(=O)NC1CCN(Cc2ccccc2)CC1`, for which the “hERG current change (%, negative = inhibition) at 1uM” value came out at 7.22%.
On to `CCc1cc2c(=O)n(Cc3ccco3)c(SCC(=O)NC3CCS(=O)(=O)C3)nc2s1` (stereo not shown), for which the “hERG current change (%, negative = inhibition) at 1uM” value is given as -29.7%.
As for `CCOc1cccc(-c2cc(C(=O)N3N=C(C)CC3(O)C(F)F)c3ccccc3n2)c1` (stereo not shown), the “hERG current change (%, negative = inhibition) at 1uM” value was 3.65%.
Then `O=C1COc2ccc(S(=O)(=O)NCc3ccc(Cl)cc3)cc2N1`, with 4.7%.
For `COc1ccccc1C(=O)NC(=O)COC(=O)c1ncc(Cl)c(Cl)c1Cl`, the “hERG current change (%, negative = inhibition) at 1uM” value was determined as 4.21%.
Consider `COC(=O)c1ccccc1-c1ccc(/C=N/NC(N)=O)o1`, for which the “hERG current change (%, negative = inhibition) at 1uM” value is recorded as -1.65%.
Turning to `Cn1ccnc1C1CCCCN1Cc1nc(-c2ccc(Cl)cc2)no1` (stereo not shown), the “hERG current change (%, negative = inhibition) at 1uM” value was -0.373%.
Regarding `Cc1cc(C(=O)O)ccc1-c1ccc(/C=C2\NC(=O)N(Cc3ccc(F)cc3)C2=O)o1`, the “hERG current change (%, negative = inhibition) at 1uM” value is 13.7%.
Regarding `CC1CCCCC12NC(=O)N(Cn1nnc3ccccc3c1=O)C2=O` (stereo not shown), the “hERG current change (%, negative = inhibition) at 1uM” value is 9.04%.
In the case of `CCOc1ccc(NC(=O)CNC(=O)c2nn(-c3ccc(OC)c(OC)c3)c(=O)c3ccccc23)cc1`, the “hERG current change (%, negative = inhibition) at 1uM” value was determined as 10.8%.
The figure for `CC(CN(C)Cc1ccccc1)OC(=O)c1cccc(F)c1.Cl` (stereo not shown) is 12.1%; for `COC(=O)c1ccc2nc(-c3ccc4c(c3)OCO4)cn2c1` it is 10.4%.
For `O=C(NCC1CCCCC1)c1cccc(S(=O)(=O)NCc2cccnc2)c1`, the “hERG current change (%, negative = inhibition) at 1uM” value is given as 6.63%.
As for `CC1CC(C)CN(C(=O)COC(=O)CNC(=O)C23CC4CC(CC(C4)C2)C3)C1` (stereo not shown), the “hERG current change (%, negative = inhibition) at 1uM” value was 19.7%.
Turning to `O=C(CCS(=O)(=O)c1cccc2nsnc12)N1CCN(C(=O)c2ccco2)CC1`, the “hERG current change (%, negative = inhibition) at 1uM” value is recorded as 10.3%.
For `CN(C)CCCN1c2ccccc2Sc2ccccc21.Cl`, the “hERG current change (%, negative = inhibition) at 1uM” value stood at 11.2%.
The figure for `O=C(COc1ccc(Cl)cc1Cl)N(Cc1ccco1)C1CCS(=O)(=O)C1` (stereo not shown) is 2.11%; for `CC(=O)Oc1ccc2c(c1)OC(c1ccccc1)CC21CC(C)(C)NC(=S)N1` (stereo not shown) it is -3.13%.
Turning to `Cc1ccc(N=Nc2c(C)[nH]n(-c3ccccc3)c2=O)c(C)c1`, the “hERG current change (%, negative = inhibition) at 1uM” value was determined as 15%.
Turning to `CC(C)(C)C(=O)Nc1sc2c(c1-c1nc3ccccc3[nH]1)CCCC2`, the “hERG current change (%, negative = inhibition) at 1uM” value is on record as 2.22%.
Turning to `COc1ccc(C(=O)/C=C/C(=O)N(Cc2ccccc2)C(C(=O)NC2CCCCC2)c2ccncc2)c(O)c1` (stereo not shown), the “hERG current change (%, negative = inhibition) at 1uM” value is recorded as 2.62%.
Regarding `Cc1cc(C(=O)NNC(=O)/C=C/c2ccc(F)cc2)c(C)o1`, the “hERG current change (%, negative = inhibition) at 1uM” value is reported as -1.32%.
Regarding `N#Cc1ccc(C(=O)NCC(c2ccco2)N2CCCCC2)cc1` (stereo not shown), the “hERG current change (%, negative = inhibition) at 1uM” value was -21.1%.
As for `O=C(NCCO)c1nc(C(=O)c2ccccc2)c2ccccc2n1`, the “hERG current change (%, negative = inhibition) at 1uM” value is 14.9%.
For the molecule `Cc1ccc(N2C(=O)CC(Sc3ncccc3C(=O)O)C2=O)cc1` (stereo not shown), the “hERG current change (%, negative = inhibition) at 1uM” value came out at 11.8%.
Then `C/C(=N\NC(=O)c1nnn(-c2nonc2N)c1CN(C)C)c1ccco1`, with 2.61%.
Regarding `CCOC(=O)C1CCCN(c2cc(C)nc3cc(-c4ccc(Cl)cc4)nn23)C1` (stereo not shown), the “hERG current change (%, negative = inhibition) at 1uM” value was 12%.
Turning to `Cc1ccccc1NC(=O)c1cccc(N2C(=O)C3CCCCC3C2=O)c1` (stereo not shown), the “hERG current change (%, negative = inhibition) at 1uM” value is recorded as 19.5%.
`CCOC(=O)c1c(C)[nH]c(C(=O)COC(=O)C23CC4CC(CC(Cl)(C4)C2)C3)c1C`: the “hERG current change (%, negative = inhibition) at 1uM” value is recorded as 12.1%.
